Measurements taken from PubChem BioAssay AID720708 (National Center for Advancing Translational Sciences (NCATS), 2013).
“And” between values parts separate entries of the source, which are not always exact repeats. Equal entries are not always repeated. About 660 (0.18%) of roughly 360,000 compounds were called active. Inconclusive means that the source gave no clear call. Such entries were picked first, then a sample of the others. Calls come from the whole dose curve; as a rule, active = well fitted inhibition curve with a large enough effect; inconclusive = small, poorly fitted or top-dose-only effect; inactive = no such curve, though single readings can be large or run the other way. Where the call is inconclusive, the potency comes from a doubtful curve fit.

What follows are compounds tested against Rap guanine nucleotide exchange factor 4 (Homo sapiens) (UniProt Q8WZA2) (assay: qHTS for Antagonist of cAMP-regulated guanine nucleotide exchange factor 2 (EPAC2): primary screen). Details: EPAC2 GEF exchange of Rap1B-BODIPY-GDP, fluorescence; series mostly up to 114 µM.
Chain of UniProt Q8WZA2 (Q8WZA2 whole entry, looked up): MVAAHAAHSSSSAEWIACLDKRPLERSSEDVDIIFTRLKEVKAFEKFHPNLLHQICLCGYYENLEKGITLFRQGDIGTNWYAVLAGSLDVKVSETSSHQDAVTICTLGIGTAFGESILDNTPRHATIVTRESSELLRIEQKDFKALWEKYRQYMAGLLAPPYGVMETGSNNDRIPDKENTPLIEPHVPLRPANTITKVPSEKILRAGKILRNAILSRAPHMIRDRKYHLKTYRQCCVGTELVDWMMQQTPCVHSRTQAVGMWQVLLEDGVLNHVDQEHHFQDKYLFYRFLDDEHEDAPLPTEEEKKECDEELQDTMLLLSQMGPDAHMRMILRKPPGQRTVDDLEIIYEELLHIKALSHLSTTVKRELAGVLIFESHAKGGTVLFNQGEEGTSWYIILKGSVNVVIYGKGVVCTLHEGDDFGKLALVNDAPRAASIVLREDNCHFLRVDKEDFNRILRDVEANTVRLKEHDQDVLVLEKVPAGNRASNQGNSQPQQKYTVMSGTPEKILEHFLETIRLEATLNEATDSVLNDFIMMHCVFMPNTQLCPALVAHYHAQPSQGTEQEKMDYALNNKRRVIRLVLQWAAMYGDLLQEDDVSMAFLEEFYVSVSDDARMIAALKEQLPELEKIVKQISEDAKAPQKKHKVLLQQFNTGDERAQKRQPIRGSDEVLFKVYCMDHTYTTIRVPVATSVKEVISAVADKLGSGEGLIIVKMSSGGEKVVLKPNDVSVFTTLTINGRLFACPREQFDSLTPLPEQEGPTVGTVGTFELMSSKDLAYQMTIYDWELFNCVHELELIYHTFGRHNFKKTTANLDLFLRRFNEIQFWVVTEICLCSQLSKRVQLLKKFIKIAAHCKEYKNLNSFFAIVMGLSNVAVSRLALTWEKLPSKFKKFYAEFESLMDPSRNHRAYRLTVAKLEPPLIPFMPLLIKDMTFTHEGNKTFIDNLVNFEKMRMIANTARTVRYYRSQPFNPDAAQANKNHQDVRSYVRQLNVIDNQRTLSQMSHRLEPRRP
Note: nearly all actives have a fitted effect of over 45% in size.
Potency is the fitted concentration of half-maximal effect; tags give direction and shape of the fitted curve.

Compound	Potency
Cc1ccc(Sc2ncccc2C(=O)N(C)Cc2cccs2)c(C)c1	inconclusive: 56.2 µM [inhibitor, partial curve]
COc1ccc(Cn2c(CCC(=O)O)nc3cccnc32)cc1	inactive
CCCOc1ccc(-c2nc(SCc3ccccc3)[nH]c(=O)c2C#N)cc1OC	inconclusive: 50.1 µM [inhibitor, partial curve]
Oc1ccc(Cc2ccc(Cl)cc2)c(O)c1	inconclusive: 56.2 µM [inhibitor, partial curve]
COc1ccccc1NCCC(=O)OCC(=O)Nc1ccccc1Cl	inactive
O=C(NCc1ccccc1)C1=C[C@@H](c2ccc(Br)cc2)C[C@@H](OCCCCO)O1	inconclusive: 8.91 µM [inhibitor, full curve]
Cc1ccc(C)c(NC2CCCCC2NS(=O)(=O)c2ccccc2)c1 (centres undefined)	inconclusive: 79.4 µM [inhibitor, partial curve]
CCc1nc2ccc(C(=O)Nc3cc(-c4ccccc4)ccc3OC)cn2c1N(C)C(=O)c1cccc(OC)c1	inactive
COCCNC(=S)Nc1ccc(N2CCOCC2)c(S(=O)(=O)Nc2ccc(Cl)cc2)c1	inconclusive: 89.1 µM [inhibitor, single point]
CCOC(=O)N1CCN(C2=C(NS(=O)(=O)c3ccc(C)cc3)C(=O)c3ccccc3C2=O)CC1	inactive
COc1cc(O)c(C(C)=O)c2c1C=CC(C)(C)O2	inconclusive: 31.6 µM [inhibitor, partial curve]
Cc1ccccc1C(=O)Nc1ccccc1N1CCCCC1	inconclusive: 35.5 µM [inhibitor, partial curve]
CCCCN1C=C(C(=O)OC)C(c2ccccc2Cl)C(C(=O)OC)=C1	inconclusive: 11.2 µM [inhibitor, partial curve]
COc1ccc(N2Cc3ccccc3C2)cc1Cl	inactive
CCOC(=O)N1CCC(Nc2nc3ccccc3n3cnnc23)CC1	inconclusive: 17.8 µM [inhibitor, single point]
CCOC(=O)C1=C(C)NC(C)=C(C(=O)OCC)C1c1ccc([N+](=O)[O-])s1	inconclusive: 35.5 µM [inhibitor, partial curve] and inconclusive: 39.8 µM [inhibitor, partial curve]
O=C(O)c1ccc(N=N/C(=N\Nc2ccc(C(=O)O)cc2)c2ccccc2)cc1	inconclusive: 31.6 µM [inhibitor, full curve]
C=CCN1C(=O)C(CC(=O)Nc2ccc(OCCC)cc2)N(CCCN2CCN(Cc3ccccc3)CC2)C1=S (centres undefined)	inconclusive: 56.2 µM [inhibitor, partial curve]
CC(C)Oc1cc(NC(=O)CS(=O)CC(=O)Nc2cccc(C(F)(F)F)c2)c(Cl)cc1Cl (centres undefined)	inconclusive: 56.2 µM [inhibitor, partial curve]
Cc1ccc(-n2nc3c(=O)n(C(C)C(=O)NCc4ccc5c(c4)OCO5)nc(C)c3c2C)cc1 (centres undefined)	inconclusive: 79.4 µM [inhibitor, single point]
CC(C)NC(=O)c1sc(=S)n2c1[nH]c(=O)c1ccc(C(=O)NCCc3ccc(Cl)cc3)cc12	inconclusive: 17.8 µM [inhibitor, full curve]
COc1ccc(-c2c(C#CC(C)(C)O)c3ccccc3n2C)cc1	inconclusive: 12.6 µM [inhibitor, full curve]

Compound	Potency
Cc1ccc2nc(Cl)c(/C=N/Nc3ccc(C(=O)O)cc3)cc2c1	inconclusive: 44.7 µM [inhibitor, partial curve]
CC1CN(C(=O)CCC(=O)NCc2ccccc2Cl)c2ccccc2S1 (centres undefined)	inconclusive: 39.8 µM [inhibitor, partial curve]
CCOC(=O)C1=CC[C@@H](c2cc3ccc(OC)cc3n2C)N(S(=O)(=O)c2ccc(C)cc2)[C@H]1C(=O)OCC	inconclusive: 12.6 µM [inhibitor, full curve, poor fit]
CC(C)C[C@H]1CNC(=O)C(=O)N1C[C@@H]1CCCN1C[C@H](Cc1ccc(O)cc1)N1C[C@H](Cc2ccccc2)N(CC2CCCCCC2)C(=O)C1=O	inconclusive: 15 µM [inhibitor, full curve]
COC(=O)C1=C(C)N(Cc2ccccc2)C(=S)N[C@H]1c1ccccc1	inconclusive: 44.7 µM [inhibitor, partial curve]
O=C(O)/C(CC(=O)c1ccc(Cl)cc1)=N/Nc1ccc([N+](=O)[O-])cc1[N+](=O)[O-]	inconclusive: 56.2 µM [inhibitor, partial curve]
Cc1ccc(-c2csc3ncnc(Nc4ccc(C(=O)O)cc4)c23)cc1	inconclusive: 79.4 µM [inhibitor, partial curve]
Cc1ccc(Sc2ccc(S(=O)(=O)Nc3ccc(C(=O)O)cc3)cc2)cc1C	inconclusive: 50.1 µM [inhibitor, single point]
CC(C)[C@H]1COCCS(=O)(=O)N1Cc1ccccc1-c1ccc(F)cc1	inconclusive: 39.8 µM [inhibitor, full curve]
COc1cccc2cc(-c3cc(=O)oc4cc(C)c(OCC(C)=O)cc34)oc12	inconclusive: 28.2 µM [inhibitor, single point]
CCSc1ccc2c(c1)N(CCCN1CCN(C)CC1)c1ccccc1S2	inactive
CC(=O)c1ccsc1-c1c(C)cc2oc(=O)cc(-c3ccccc3)c2c1C	inconclusive: 35.5 µM [inhibitor, full curve]
CCCCNc1c(-c2ccc(SC(C)CC)c(OC)c2)nc2ccc(C)cn12 (centres undefined)	inconclusive: 14.1 µM [inhibitor, full curve, poor fit]
COC(=O)c1c(-c2ccccc2OC)sc2ccccc12	inconclusive: 25.1 µM [inhibitor, partial curve]
CCOC(=O)c1c(-c2ccccc2)oc2ccc(OCC)cc12	inconclusive: 50.1 µM [inhibitor, partial curve]
CCc1nnc(NS(=O)(=O)c2ccc(N/C=C(\C=O)c3nc4cc(Cl)ccc4o3)cc2)s1	inactive
CCOC(=O)c1cc(CC)sc1NC(=O)COC(=O)C1CCC1	inconclusive: 63.1 µM [inhibitor, partial curve]
Cc1cccc(C)c1N1C(=O)c2ccccc2NC(=O)C1C(=O)Nc1ccc(N2CCOCC2)cc1 (centres undefined)	inactive
COc1cccc(C(=O)NCCSc2ccc(F)cc2)c1	inactive
CCOc1cnc(-c2c(-c3c(F)cccc3Cl)noc2C)o1	inconclusive: 89.1 µM [inhibitor, partial curve]
Cc1ccc(-n2nnnc2SC(C)C(=O)Nc2ccccc2-c2ccccc2)cc1 (centres undefined)	inconclusive: 44.7 µM [inhibitor, partial curve]
Cc1cc(C)n(C(=O)N(c2ccccc2)c2ccccc2)n1	inconclusive: 100 µM [inhibitor, partial curve, poor fit]

Compound	Potency
COCCN(CCOC)c1nc(-c2ccc(Cl)cc2)nc2ccccc12	inconclusive: 89.1 µM [inhibitor, partial curve]
O=c1cccc(-c2ccc3ccccc3c2)o1	inconclusive: 28.2 µM [inhibitor, single point]
O=C(c1ccccc1)C1(c2ccccc2)OC1c1ccccc1 (centres undefined)	inconclusive: 50.1 µM [inhibitor, partial curve]
O=C1N(c2ccccc2C(F)(F)F)O[C@@]1(c1ccccc1)C1CCCC1	inconclusive: 50.1 µM [inhibitor, partial curve]
O=C(Cc1cccc2ccccc12)N/N=C/c1ccc(Sc2nc3ccccc3s2)o1	inactive
CSc1ccc(C2C(C(=O)c3ccco3)=C(O)C(=O)N2c2nnc(SC)s2)cc1 (centres undefined)	inconclusive: 17.8 µM [inhibitor, full curve]
CCOc1ccc(NC(=O)CSc2ncn[nH]2)c([N+](=O)[O-])c1	inactive
O=C(Cc1ccc(Br)c2ccccc12)N/N=C/c1ccccn1	inconclusive: 79.4 µM [inhibitor, single point]
COc1ccc(/C=C2/SC(=O)N(CCCCCC(=O)Nc3ccccc3C(=O)O)C2=S)cc1	inconclusive: 70.8 µM [inhibitor, single point]
CC1C(c2ccccc2)=NNc2nc3c(c(=O)n(C)c(=O)n3C)n21 (centres undefined)	inactive
CC1=C(SCc2ccccc2)C(=O)c2ccccc2C1=O	inconclusive: 70.8 µM [inhibitor, single point]
BrC(=C\c1ccccc1)/C=N/Nc1ccc2nncn2n1	inactive
CCOC(=O)C1CCN(C(=O)COC(=O)c2cccc(NS(=O)(=O)c3ccccc3)c2)CC1	inconclusive: 22.4 µM [inhibitor, full curve, poor fit]
Cc1sc2ncnc(N=Nc3c(O)[nH]c4ccccc34)c2c1C	inactive
CN[C@@H](C)C(=O)NC[C@H]1O[C@@H](n2cnc3c(=O)[nH]c(N)nc32)[C@H](O)[C@@H]1O	inconclusive: 100 µM [inhibitor, single point]
CS(=O)(=O)N1CCC(C(=O)Nc2ccc(Cl)cc2Cl)CC1	inactive
COCOCCn1cc(CN2CCS(=O)(=O)N(Cc3ccc(-c4ccc(Cl)cc4)cc3)C(CC(C)C)C2=O)nn1 (centres undefined)	inconclusive: 22.4 µM [inhibitor, full curve]
COc1ccc(S(=O)(=O)N2CCN(CC(=O)Nc3ccccc3Cl)CC2)cc1	inactive
Cc1nnc(Sc2cc(NCCCO)c([N+](=O)[O-])c3nonc23)s1	inactive
O=C1NC[C@H](Cc2ccc(O)cc2)N(C[C@@H]2CCCN2C[C@H](Cc2ccc(O)cc2)N2C[C@H](Cc3ccccc3)N(CC3CCCCC3)C(=O)C2=O)C1=O	inconclusive: 33.6 µM [inhibitor, full curve]
